{"source": "PubChem BioAssay AID1454", "about": "(National Center for Advancing Translational Sciences (NCATS), 2008)", "note": "About 550 (0.42%) of roughly 130,000 compounds were called active. About 4% were inconclusive and are not listed. Calls follow the shape of the dose curve; as a rule, active = well fitted inhibition curve with a large enough effect; inconclusive = small, poorly fitted or top-dose-only effect, or effect the other way; inactive = flat fitted curve, though single readings scatter. Only a part is listed here, and it is no random draw. Potency is read from the fitted curve at half-maximal effect."}
{"test": "qHTS Assay for Inhibitors of the ERK Signaling Pathway using a Homogeneous Screening Assay; Stimulation with EGF; also: nearly all actives have a fitted effect of over 55% in size;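 as to activity change, negative = inhibition: plate controls were stimulated vehicle wells for no effect and unstimulated vehicle basal for full effect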", "conditions": "HEK293-V1b, EGF-stimulated phospho-ERK AlphaScreen; activity change, negative = inhibition: at the top concentration", "method_in_brief": "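HEK293 cells stably expressing V1b receptor, serum-reduced (1% FBS) overnight, pretreated 30 min with compound, then stimulated 5 min with 25 nM EGF; phospho-ERK detected by AlphaScreen SureFire. AC50 from Hill fits, normalized to DMSO and EGF.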"}
{"smiles": "CN(C)c1ccc(/C=C2/C(=O)Nc3ccccc32)cc1", "activity change, negative = inhibition": "inactive: -2.04%"}
{"smiles": "CC(C)Oc1ccccc1/C=N/Nc1ccccc1[N+](=O)[O-]", "Potency": "active: 12.6 µM"}
{"smiles": "CC[C@H](C)C(=O)O[C@H]1CCC=C2C=C[C@H](C)[C@H](CC[C@@H]3C[C@@H](O)CC(=O)O3)[C@H]21", "activity change, negative = inhibition": "inactive: -4.09%"}
{"smiles": "O=C1c2ccccc2C(=O)c2c1ccc(O)c2O", "activity change, negative = inhibition": "inactive: 4.89%"}
{"smiles": "CN1CCN(CCCN2c3ccccc3Sc3ccc(Cl)cc32)CC1", "Potency": "inactive"}
{"smiles": "CN1C=CC=C/C1=C1/SC(=S)N(Cc2ccccc2)C1=O", "activity change, negative = inhibition": "inactive: 23.1%"}
{"smiles": "COc1ccccc1CC(Cc1nc2ccccc2[nH]1)c1nc2ccccc2[nH]1", "note": "(stereo not drawn)", "activity change, negative = inhibition": "inactive: -2.54%"}
{"smiles": "Oc1cc2c(cc1O)[C@H](c1ccccc1)CNCC2", "activity change, negative = inhibition": "inactive: 5.94%"}
{"smiles": "COc1ccc(C2CNC(=O)C2)cc1OC1CCCC1", "note": "(stereo not drawn)", "Potency": "inactive"}
{"smiles": "CC(C)(C)[C@H]1C=C(C(=O)N2CCN(Cc3ccccc3)CC2)O[C@@H](OCc2ccc(CO)cc2)C1", "activity change, negative = inhibition": "inactive: -3.05% [at 57.5 µM]"}
{"smiles": "CCOC(=O)C1=C(C)NC(C)=C(C(=O)OC)[C@H]1c1cccc([N+](=O)[O-])c1", "activity change, negative = inhibition": "inactive: -5.87%"}
{"smiles": "CC(C)(C=O)Cc1cc(C(C)(C)C)c(O)c(C(C)(C)C)c1", "activity change, negative = inhibition": "inactive: 6.49%"}
{"smiles": "COc1c(-c2coc3cc4c(cc3c2=O)CC(O)C(C)(C)O4)ccc2c1C=CC(C)(C)O2", "note": "(stereo not drawn)", "Potency": "active: 12.6 µM"}
{"smiles": "CCCN1C(=O)/C(=C/c2nc3ccccc3c(=O)[nH]2)c2ccccc21", "activity change, negative = inhibition": "inactive: 2.99%"}
{"smiles": "Cc1[nH]n(-c2ccccc2)c(=O)c1N=Nc1ccccc1", "Potency": "active: 15.8 µM"}
{"smiles": "COc1ccc([C@@H]2CC(=O)c3c(O)cc(O)cc3O2)cc1O", "activity change, negative = inhibition": "inactive: 5.47%"}
{"smiles": "CCN(CC)CCOC(=O)C1(C2CCCCC2)CCCCC1", "Potency": "inactive"}
{"smiles": "Oc1cc(O)c2c(c1)O[C@H](c1ccc(O)c(O)c1)[C@@H](O)C2", "Potency": "inactive"}
{"smiles": "CCN1C(=O)/C(=C\\C=C2/C=CC=CN2CC)SC1=S", "Potency": "active: 25.1 µM"}
{"smiles": "CCOc1cc(/C=N/N=C(N)N)ccc1OCc1ccc(Cl)cc1", "Potency": "active: 31.6 µM"}
{"smiles": "O=C(CCCN1C(=O)/C(=C\\c2ccccc2)SC1=S)Nc1ccc(O)cc1", "activity change, negative = inhibition": "inactive: 6.37%"}
{"smiles": "CN(/N=C/c1ccc([N+](=O)[O-])o1)c1ccccc1", "Potency": "active: 25.1 µM"}
{"smiles": "O=C1c2ccccc2C(=O)C1c1ccccc1", "Potency": "inactive"}
{"smiles": "O=C(O)CCc1nc(-c2ccccc2)c(-c2ccccc2)o1", "Potency": "inactive"}
{"smiles": "CCOc1ccc2[nH]c3c(N4CCc5ccccc5C4)ncnc3c2c1", "Potency": "active: 31.6 µM"}
{"smiles": "CCCCCCCCCCCCCCCC(=O)O[C@H](CC(=O)O)C[N+](C)(C)C", "activity change, negative = inhibition": "inactive: 2.12%"}
{"smiles": "O=C(NN1C(=O)C2C3c4ccccc4C(c4ccccc43)[C@@H]2C1=O)c1ccccc1", "note": "(stereo partly drawn)", "activity change, negative = inhibition": "inactive: 1.52%"}
{"smiles": "Cc1ccc(N=CC2=C(O)CC(c3ccccc3Cl)CC2=O)cc1", "note": "(stereo not drawn)", "Potency": "active: 20 µM"}
{"smiles": "CCOC(=O)Nc1ccc2c(c1)N(C(=O)CCN1CCOCC1)c1ccccc1S2", "activity change, negative = inhibition": "inactive: -8.6% [at 25.7 µM]"}
{"smiles": "CN(C)c1ccc(N=Nc2ccccc2C(=O)OCC(=O)NCC2CCCCC2)cc1", "Potency": "active: 12.6 µM"}
{"smiles": "COc1ccc(-c2cc(C(F)F)n3ncc(C(=O)Nc4cc(C)on4)c3n2)cc1", "Potency": "active: 28.2 µM"}
{"smiles": "CC(C)[C@H](NC(=O)c1ccccc1)C(=O)OCc1nc2scc(-c3ccccc3)c2c(=O)[nH]1", "Potency": "active: 35.5 µM"}
{"smiles": "CC1=C(C)C(=O)C(CCCCC#CCCCC#CCO)=C(C)C1=O", "activity change, negative = inhibition": "inactive: 8.13%"}
{"smiles": "COc1ccc([C@@H]2CNC(=O)C2)cc1OC1CCCC1", "Potency": "inactive"}
{"smiles": "Nc1ncnc2c1ncn2C1OC(CO)C(O)C1O", "note": "(stereo not drawn)", "Potency": "inactive"}
{"smiles": "CC#C[C@@]1(O)CC[C@H]2[C@@H]3CCC4=CC(=O)CCC4=C3[C@H](c3ccc(N(C)C)cc3)C[C@]21C", "activity change, negative = inhibition": "inactive: 8.13% [at 25.7 µM]"}
{"smiles": "COc1cc(OC)c2c(=O)c(OC)c(-c3ccc(OC)c(OC)c3)oc2c1", "activity change, negative = inhibition": "inactive: 26.1%"}
{"smiles": "Nc1nc(Cl)nc2c1ncn2[C@@H]1O[C@H](CO)[C@H](O)[C@H]1O", "activity change, negative = inhibition": "inactive: 16.2%"}
{"smiles": "COC(=O)[C@@]1(Cc2ccc(F)cc2)[C@H]2c3cc(C(=O)N4CCCC4)n(CCc4ccc(O)c(O)c4)c3C[C@H]2CN1C(=O)c1ccccc1", "activity change, negative = inhibition": "inactive: 1.89%"}
{"smiles": "COC1C=CO[C@@]2(C)Oc3c(C)c(O)c4c(O)c(c5c(nc6cc(C)ccn65)c4c3C2=O)NC(=O)/C(C)=C\\C=CC(C)C(O)[C@@H](C)C(O)C(C)[C@@H](OC(C)=O)C1C", "note": "(stereo partly drawn)", "activity change, negative = inhibition": "inactive: 20.3%"}
{"smiles": "Oc1ccc(Nc2ncnc3scc(-c4ccccc4)c23)cc1", "Potency": "active: 22.4 µM"}
{"smiles": "CCO[C@H]1OC(C(=O)O)=C[C@@H](C2CC2)[C@@H]1CCCO", "activity change, negative = inhibition": "inactive: -9.04% [at 57.5 µM]"}
{"smiles": "CC1=C(/C=C/C(C)=C/C=C/C(C)=C/C(=O)Nc2ccc(O)cc2)C(C)(C)CCC1", "Potency": "inactive"}
{"smiles": "CSC(SC)=C(C#N)C(=O)c1ccccc1", "Potency": "active: 25.1 µM"}
{"smiles": "C(=C/c1ccccc1)/CN1CCN(C(c2ccccc2)c2ccccc2)CC1", "activity change, negative = inhibition": "inactive: 19.1% [at 25.7 µM]"}
{"smiles": "CN1CCc2cccc3c2C1Cc1ccc(O)c(O)c1-3", "note": "(stereo not drawn)", "activity change, negative = inhibition": "inactive: 11.7%"}
{"smiles": "CS(=O)(=O)Nc1ccc([N+](=O)[O-])cc1Oc1ccccc1", "Potency": "inactive"}
{"smiles": "CCCCCCCCCCCCC/C=C\\[C@@H](O)[C@@H](N)CO", "activity change, negative = inhibition": "inactive: 0.759%"}
